The list shows a part of the results.

This note sets out measurements from paper PMC7819943, “Rice protein-binding microarrays: a tool to detect cis-acting elements near promoter regions in rice”.

This assay has as its target T1, OsWOX13 (Oryza sativa, UniProt Q5QMM3 1-267).
T1 sequence: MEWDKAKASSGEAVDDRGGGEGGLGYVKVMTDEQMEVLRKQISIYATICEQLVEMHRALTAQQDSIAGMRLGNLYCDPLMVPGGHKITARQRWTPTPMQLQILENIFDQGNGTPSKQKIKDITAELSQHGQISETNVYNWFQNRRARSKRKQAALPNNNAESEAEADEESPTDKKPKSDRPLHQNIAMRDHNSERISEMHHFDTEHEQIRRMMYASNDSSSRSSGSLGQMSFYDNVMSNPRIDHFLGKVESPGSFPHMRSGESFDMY
Put plainly: protein-binding microarray (RPBM); PBS, 2% BSA, 51.3 ng/ul salmon testes DNA, 50 uM zinc acetate, 200 nM TF, 25 C, 1 h; high values mean tight binding. Particulars: protein: recombinant; tags: N-terminal polyhistidine and DsRed monomer fusion (pET32a); label: CyDye5-dUTP incorporated in the synthesized complementary strand; 3' TTTTT single-stranded linker to array surface; dsDNA, one strand shown. The method in brief: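 The binding signal is fluorescence intensity per feature, in arbitrary units, read on an Axon 4000B scanner. Polyhistidine- and DsRed-tagged transcription factors (N-terminal fusions) from E. coli BL21-CodonPlus were purified on Ni–NTA and applied at 200 nM for 1 h at 25 °C to a double-stranded, BSA-blocked custom Agilent array in buffer with 50 µM zinc acetate.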
For “TTATTTAAATCAAGATATATTTTAACGTCACCTTTCTCGTCGGAGTCACCTAGTGCAG”, the binding signal was 3820 fluorescence intensity (a.u.).

Turning to “ATCATATTTAATTTTATAATTTCTTTCTCCATCTTGTAAGCGGAGTCACCTAGTGCAG”, the binding signal is 15300 fluorescence intensity (a.u.). Take “ATCCAATTAGGAATTGATATTTCACCTTCTATGCCTTCTGCGGAGTCACCTAGTGCAG”: the binding signal is 16500 fluorescence intensity (a.u.). In the case of “CACTTCACTCTAAAATTAATTTGTTTCACACTGTTTAGCTCGGAGTCACCTAGTGCAG” it was 13500 fluorescence intensity (a.u.); in that of “TTTCAATTTGATGGGCCGGATTTTCAAGGCTCAATATCTTCGGAGTCACCTAGTGCAG”, 7660 fluorescence intensity (a.u.); in that of “ATCCGTTAAATTTAATGTTTCAGACACAGTAGCAATATGTCGGAGTCACCTAGTGCAG”, 7710 fluorescence intensity (a.u.). On to “CTTGAGGGATAATTGCTCTTATTATTTGCAACTCTAGAGCCGGAGTCACCTAGTGCAG”, for which the binding signal was 11800 fluorescence intensity (a.u.). As for “GTCAAATCTCCCAATTAGCACAAATTCCTTCAGTTCCATGCGGAGTCACCTAGTGCAG”, the binding signal was 8000 fluorescence intensity (a.u.). With “TTGTCATAATTTGAAATTCAAATTCAAACTGTCCAAACAACGGAGTCACCTAGTGCAG”, the binding signal is 11400 fluorescence intensity (a.u.).

Turning to “CAAATTCCAATCATCTCCAAAACCACTTCGCAAATAAATTCGGAGTCACCTAGTGCAG”, the binding signal is 17900 fluorescence intensity (a.u.). As to “TGTATGGATAACACTCAATCAAATACATGTGGTGGTCACGCGGAGTCACCTAGTGCAG”, the binding signal is 6880 fluorescence intensity (a.u.). As to “TAATTTGTTAATTAATTGAGTGGTACTTAATTGACAAATTCGGAGTCACCTAGTGCAG”, the binding signal is 51700 fluorescence intensity (a.u.). As for “TCTGCTGATAGAAGAAACAAACGGGGATCTATTTATAGGTCGGAGTCACCTAGTGCAG”, the binding signal was 10400 fluorescence intensity (a.u.). With “ACTGTCAAACTGGCTAATTTAGAAAGACGACATCGAATTCCGGAGTCACCTAGTGCAG”, the binding signal is 11600 fluorescence intensity (a.u.). For “CCTTAATTAATTGTTATAATACTTGTGTACGCTGAACATACGGAGTCACCTAGTGCAG”, the binding signal is 51800 fluorescence intensity (a.u.). In the case of “CCCTTGATGGAAAATTCTGTAAGATTTAAACTACAAATCTCGGAGTCACCTAGTGCAG”, the binding signal is 8100 fluorescence intensity (a.u.).

Regarding “CAGTAGCTAATTACTCCAATTGTAAAGTCACTGAGGAAAGCGGAGTCACCTAGTGCAG”, the binding signal was 6580 fluorescence intensity (a.u.). In the case of “AAATCCTTTTAGATTGGTACGTATATAACATCATCAAACCCGGAGTCACCTAGTGCAG” it was 3580 fluorescence intensity (a.u.). For the sequence “CACCTCTTGTTGATTAGACACATGGTGGGTCGAGGAATGGCGGAGTCACCTAGTGCAG”, the binding signal was 7200 fluorescence intensity (a.u.). As for “AAAACATTAATTTTATTGATAAAGAAAACTATGCATATATCGGAGTCACCTAGTGCAG”, the binding signal was 7530 fluorescence intensity (a.u.). “CCCGTAATTACCCCAAACACGCAGGGGCATTTCCGTCCACCGGAGTCACCTAGTGCAG”: the binding signal is 21700 fluorescence intensity (a.u.). As to “CATATATAATAATTAACAGATATAGATAGACATCACATCACGGAGTCACCTAGTGCAG”, the binding signal is 9750 fluorescence intensity (a.u.). “TTAATTGATGAAGTTGTCTTGTGGGGTAGCAGCACTTTGACGGAGTCACCTAGTGCAG”: the binding signal is 29900 fluorescence intensity (a.u.). Consider “GCCATTGACTGAAACAATTCAACTACAACTGATACTAATCCGGAGTCACCTAGTGCAG”, for which the binding signal is 15300 fluorescence intensity (a.u.). For the sequence “CCTCATAAATAAATTTATTTGATAGCCTCCTAAGAGATTGCGGAGTCACCTAGTGCAG”, the binding signal was 14700 fluorescence intensity (a.u.). In the case of “TTAATTAATGCATGCTTGGACCAGCAATAAATCCTTGGATCGGAGTCACCTAGTGCAG”, the binding signal was 4550 fluorescence intensity (a.u.). In the case of “GACTAATCAAACAATTTCCCTCGCTATTAGTCACTGACAGCGGAGTCACCTAGTGCAG” it was 15100 fluorescence intensity (a.u.). Consider “TGCCACTCAAGTACAATTATTCCCATTAATTCGCTCCATTCGGAGTCACCTAGTGCAG”, for which the binding signal is 5600 fluorescence intensity (a.u.). In the case of “AGAAATATTCAATCAAGCTACTGCGCACATATATCTTTATCGGAGTCACCTAGTGCAG”, the binding signal was 9630 fluorescence intensity (a.u.). “CTAAACAATAATAATGGGTAACATATAGGGTTCATAATTCCGGAGTCACCTAGTGCAG”: the binding signal is 4580 fluorescence intensity (a.u.). With “AAAATACTAATTACAGAATCCGTCAGTAAACCGTGGGACACGGAGTCACCTAGTGCAG”, the binding signal is 11300 fluorescence intensity (a.u.). As to “TTCAAATTTATTATTGCCCACAGCCCACAACCACATCGACCGGAGTCACCTAGTGCAG”, the binding signal is 6990 fluorescence intensity (a.u.). In the case of “TCGGAAAATTATTAGACACCTTTTATTATTTGCAAAAGGCCGGAGTCACCTAGTGCAG” it was 3380 fluorescence intensity (a.u.). In the case of “AGCTGATCTATCCAAATTGGTGAAACTAATTGTAAATTCTCGGAGTCACCTAGTGCAG” it was 11000 fluorescence intensity (a.u.); in that of “ATTTATGATGACAGTGTTATTATGATAGAGGACAGTGTCACGGAGTCACCTAGTGCAG”, 3720 fluorescence intensity (a.u.); in that of “ACTCCCTATTAATTTCCATCACCTTTACCAAACAAGATATCGGAGTCACCTAGTGCAG”, 6910 fluorescence intensity (a.u.). As for “GTTTGATTGGTGCTGTGCATGACTGCATAGCTCTATTCATCGGAGTCACCTAGTGCAG”, the binding signal is 40000 fluorescence intensity (a.u.).

In the case of “ATTTATTCAGATTGAGCTAATCAGCCACCAAACTCGCAGACGGAGTCACCTAGTGCAG”, the binding signal was 9730 fluorescence intensity (a.u.). Take “TTATCAATTACCGATGTGGGACTAAACCTAACAATCTCCCCGGAGTCACCTAGTGCAG”: the binding signal was 22900 fluorescence intensity (a.u.).

Regarding “CATCGTTTCAATTATAACCAAACTTTTCTACATACACTTCCGGAGTCACCTAGTGCAG”, the binding signal is 4160 fluorescence intensity (a.u.).

Take “TTGTGATTGCCAGCATGGCTGCATCTCGACGAGGCGCCCCCGGAGTCACCTAGTGCAG”: the binding signal was 22000 fluorescence intensity (a.u.).

Turning to “ACACAAATTACTGTACAACATGGCTGTATCGTAGTTGAAACGGAGTCACCTAGTGCAG”, the binding signal is 4430 fluorescence intensity (a.u.).
